# Experimental data taken from PubChem BioAssay AID504832 (National Center for Advancing Translational Sciences (NCATS), 2011).
# The campaign covered roughly 310,000 compounds. About 18,000 (5.8%) were called active. The call rests on the fitted dose curve; in most records, active means well fitted inhibition curve with a large enough effect; inconclusive means small, poorly fitted or top-dose-only effect, or another doubt; inactive means no such curve, though single readings can be large or run the other way. The inconclusive results got no clear call from the source. No potency is given beside an inconclusive call; the fits are too rough.
# Experiment: Primary qHTS for delayed death inhibitors of the malarial parasite plastid, 48 hour incubation
# Settings: P. falciparum luciferase growth in erythrocytes; series mostly up to 28.7 µM
# Description: The goal of this screen is to discover new antimalarial compounds that act by inhibiting the development of the apicoplast in the malarial parasite Plasmodium falciparum. The biochemical processes that make this organelle essential for erythrocytic stage parasites are not well understood. However, antibiotics such as azithromycin and tetracycline, which target the apicoplast translational machinery, have a potent antimalarial effect.
# We have developed a cell-based assay that measures parasite growth based on the expression of an integrated copy of a firefly luciferase reporter. To detect small molecules that cause this "delayed death" phenotype, erythrocytes infected with the luciferase-expressing parasites were incubated with compounds for either one or two generations, corresponding to 48 and 96 hours, respectively. […] Growth inhibition is detected by a decrease in luciferase activity. […]
# Four microliters of culture medium (RPMI 1640 with 0.5% w/v Albumax (GIBCO), 24 mM sodium bicarbonate and 10 ug/mL gentamycin) were dispensed by a Multi-drop Combi into white solid 1536-well plates (Grenier) and 23 nL compound was added by a pin tool. […] Two microliters of luciferase detection reagent was added and luminescence was detected by a ViewLux (PerkinElmer) reader.
# Potency means the concentration at half of the fitted maximal effect; tags describe the fitted curve by direction and shape.
row,SMILES,Potency
1,COc1cc(/C=C2\C(=N)N3N=C(S(C)(=O)=O)SC3=NC2=O)ccc1OC(=O)c1cccs1,"inconclusive [inhibitor, partial curve]"
2,Cc1cc(N2C(=O)C(O)=C(C(=O)c3cc4ccccc4o3)C2c2ccc(Cl)cc2)no1 (configuration not stated),"inconclusive [inhibitor, single point]"
